# Test results reported in the supplement of paper PMC7125110.
# ± gives the standard error. This sample is rich in variants without activity.
# B1: glmS ribozyme (parent)
# chain: AUAAAAGCGCCAGAACUACAGAAAUGUAGUUGACGAGGAGGAGGUUUAUCGAAUUUUCGGCGGAUGCCUCCAAA
# Variants of: B1
# Experiment: self-cleavage kobs at 10000 uM GlcN6P; higher = faster cleavage; RNA array
# Settings: with glucosamine-6-phosphate
# Procedure, shortened: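 Barcoded ribozyme variants on sequenced MiSeq chips were transcribed in situ by E. coli RNA polymerase and followed at 37 °C through a hybridised Cy3 probe. Glucosamine-6-phosphate at 40 μM to 10 mM in HEPES/KCl/Mg(OAc)2 buffer was flowed in, and tiles were imaged over ~14 h. Signals were normalised to baseline and to non-cleaving reference variants, and per-tile medians were fit to one- or two-exponential decays to give kobs. Weighted Michaelis–Menten fits across concentrations gave kcat and KM.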
row,Variant,self-cleavage kobs at 10000 uM GlcN6P
1,G29U U31G G32C C67A C68G,5.79e-05 ± 2.8e-05 s⁻¹
2,U30A A48U A53G G63U,< 1e-05 s⁻¹
3,U30A G38A C70U,< 1e-05 s⁻¹
4,U30C C50A U55G,< 1e-05 s⁻¹
5,U30C G63C C71U,< 1e-05 s⁻¹
6,U30G G35C A52U C67G,< 1e-05 s⁻¹
7,U30G U47C C68U,0.000171 ± 3.3e-05 s⁻¹
8,U31A A48U C58A C68U,< 1e-05 s⁻¹
9,U31A G38U U49G U65G,< 1e-05 s⁻¹
10,U31A G43C C68U,0.000192 ± 5.2e-05 s⁻¹
11,U31C G32C A64C C68A,< 1e-05 s⁻¹
12,U31G A53G U69C,0.00324 ± 0.00093 s⁻¹
13,U31G G43C U45G,0.000273 ± 8.2e-05 s⁻¹
14,G32A A33U A36C,< 1e-05 s⁻¹
15,G32C U49C C50U U54A,< 1e-05 s⁻¹
16,G32U C34U G40A U65C C67U C71G,< 1e-05 s⁻¹
17,G32U G44U G63C,< 1e-05 s⁻¹
18,G32U U57G,5.4e-05 ± 1.4e-05 s⁻¹
19,A33C A52G U54A,< 1e-05 s⁻¹
20,A33C C50A C67G C68G,7.88e-05 ± 2.1e-05 s⁻¹
21,A33C U46G A52U,< 1e-05 s⁻¹

row,Variant,self-cleavage kobs at 10000 uM GlcN6P
1,A33C U49G C67G,< 1e-05 s⁻¹
2,A33G G37A U69G,< 1e-05 s⁻¹
3,A33G G62U C68U,< 1e-05 s⁻¹
4,A33U A36C G38A A52U,< 1e-05 s⁻¹
5,A33U A52U C71G,< 1e-05 s⁻¹
6,A33U C50A G66A,< 1e-05 s⁻¹
7,A33U G35C G62U C67U,< 1e-05 s⁻¹
8,A33U G38U U54C,< 1e-05 s⁻¹
9,C34A A36U G60C,< 1e-05 s⁻¹
10,C34A A42G G43C G51A,< 1e-05 s⁻¹
11,C34A A42U U69C C71U,< 1e-05 s⁻¹
12,C34A G66U C67G,< 1e-05 s⁻¹
13,C34U A42U G63C C67U C71U,< 1e-05 s⁻¹
14,C34U G35U A48C,< 1e-05 s⁻¹
15,G35A A36G G51U,< 1e-05 s⁻¹
16,G35A G37C A52U U65G C70A,< 1e-05 s⁻¹
17,G35A U49C G63U,< 1e-05 s⁻¹
18,G35C C50G A53C,3.34e-05 ± 8.6e-06 s⁻¹
19,G35C G41A U45A,< 1e-05 s⁻¹
20,G35U A39G A42U A64G,< 1e-05 s⁻¹
21,G35U G38C A42C,< 1e-05 s⁻¹

row,Variant,self-cleavage kobs at 10000 uM GlcN6P
1,G35U G38U U49G C50A,< 1e-05 s⁻¹
2,G35U G63U A64G,< 1e-05 s⁻¹
3,A36C C50A U65A,< 1e-05 s⁻¹
4,A36C C61A,< 1e-05 s⁻¹
5,A36C G40A C68G,< 1e-05 s⁻¹
6,A36C G41A A48C C67U,< 1e-05 s⁻¹
7,A36C U57A,< 1e-05 s⁻¹
8,A36G C50U C58U,< 1e-05 s⁻¹
9,A36G G41C U56C C67G C68G,< 1e-05 s⁻¹
10,A36G U46A U55G,< 1e-05 s⁻¹
11,A36G U54G G63C,< 1e-05 s⁻¹
12,A36U A53U U65C,< 1e-05 s⁻¹
13,G37A G62A G63U,< 1e-05 s⁻¹
14,G37C A42G U65C,< 1e-05 s⁻¹
15,G37U C58U,< 1e-05 s⁻¹
16,G38A A39C U57G,< 1e-05 s⁻¹
17,G38A G63A,< 1e-05 s⁻¹
18,G38U G41A U45G U56A G59U,< 1e-05 s⁻¹
19,G38U G59A C67U,< 1e-05 s⁻¹
20,A39C U55A A64U U65G,< 1e-05 s⁻¹
21,A39C U56G G59A,< 1e-05 s⁻¹

row,Variant,self-cleavage kobs at 10000 uM GlcN6P
1,A39U G44A C67G,0.00582 ± 0.0014 s⁻¹
2,G40A C58A G62U,< 1e-05 s⁻¹
3,G40A U45A G66A,0.00649 ± 0.0018 s⁻¹
4,G40C G41C C50G C61U,< 1e-05 s⁻¹
5,G41A C50U U55G G63A,< 1e-05 s⁻¹
6,G41A G44U A52U U57G C68U,< 1e-05 s⁻¹
7,G41C C67U C70A,2.88e-05 ± 1.3e-05 s⁻¹
8,G41C U49A C70A,< 1e-05 s⁻¹
9,G41C U57G,< 1e-05 s⁻¹
10,G41U G51U C67A,< 1e-05 s⁻¹
11,A42C G66A C67A C68U C71U,< 1e-05 s⁻¹
12,A42G A48U U55G,0.000404 ± 8.1e-05 s⁻¹
13,G43A U55A,8.23e-05 ± 1.2e-05 s⁻¹
14,G43C U46A A48C C58U,< 1e-05 s⁻¹
15,G43C U56G,< 1e-05 s⁻¹
16,G43U C58U G63A C68A,< 1e-05 s⁻¹
17,G44A G51U U54C G62C,< 1e-05 s⁻¹
18,G44A U46A,0.000375 ± 6.2e-05 s⁻¹
19,G44C U65G C67U,0.000247 ± 8.5e-05 s⁻¹
20,U45G G59A C71A,< 1e-05 s⁻¹
21,U47C A48C C67G,< 1e-05 s⁻¹
